For assay [1], the system named is RAW-Dual. Nature of the assay: IRF Lucia reporter activity, fold change vs agonist alone; cytotoxicity flag (confluency mask): not cytotoxic; higher = enhanced IRF activity. The method in brief:
(§1)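 After 50 nL of library stock was delivered by pin tool to RAW-Dual macrophages (50,000 cells/well, DMEM, 384-well plates), a PRR agonist was added 1 h later and the plates were kept at 37 °C, 5% CO2. Twenty hours later, IRF was read from supernatant by QuantiLuc luminescence and NF-κB by QuantiBlue absorbance at 620 nm. Reporter activity is stated as fold change over agonist-alone wells. Wells with IncuCyte confluency under 70% of agonist controls in both mask sets were counted as cytotoxic.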

Assay [2] has as its system RAW-Dual. In words: IRF Lucia reporter activity, fold change vs agonist alone; higher = enhanced IRF activity. Particulars: library stock concentration (final ~1000-fold dilution): 10 mM, agonist: MPLA (TLR4) […]. An outline of the steps: as §1
Assay [3] has as its system RAW-Dual. Nature of the assay: IRF Lucia reporter activity, fold change vs agonist alone; cytotoxicity flag (confluency mask): cytotoxic (confluency <70% of control); higher = enhanced IRF activity. An outline of the steps: as §1
[4] abbreviates: agonist: 3'3'-cGAMP (STING) 10 ug/mL.
The mark [5] stands for this setting: cytotoxicity flag (confluency mask): not cytotoxic.

The full ranking holds about 2,900 compounds; the median of “IRF Lucia reporter activity, fold change vs agonist alone” is about 0.9, and the highest 2% start at about 2.8. The list shows a part of the results.

Take `OC(Cn1cncn1)(Cn1cncn1)c1ccc(F)cc1F` (library stock concentration (final ~1000-fold dilution): 10 mM): the “IRF Lucia reporter activity” value came out at 1.06 in the assay on RAW-Dual [1] (setting [4]) and 0.92 with RAW-Dual [1] (agonist: LPS (TLR4) 0.1 ug/mL).

As for `OC(Cn1cncn1)(Cn1cncn1)c1ccc(F)cc1F`, the “IRF Lucia reporter activity” value in the assay on RAW-Dual [2] (setting [5]) amounted to 1.01.

Take `O=C1NC(=O)C(c2cnc3ccccn23)=C1c1cn2c3c(cc(F)cc13)CN(C(=O)N1CCCCC1)CC2`: the “IRF Lucia reporter activity” value in the assay on RAW-Dual [2] (setting [5]) came to 0.0787.

Consider `O=C1NC(=O)C(c2cnc3ccccn23)=C1c1cn2c3c(cc(F)cc13)CN(C(=O)N1CCCCC1)CC2` (library stock concentration (final ~1000-fold dilution): 10 mM), for which the results for the “IRF Lucia reporter activity” value in the assay with RAW-Dual [1] (setting [4]) and in the assay on RAW-Dual [1] (agonist: LPS (TLR4) 0.1 ug/mL) were 0.0446 and 0.0791, respectively.

Regarding `CC1CCC2C(C)C(OC(=O)CCC(=O)O)OC3OC4(C)CCC1C32OO4` (stereo unspecified) (library stock concentration (final ~1000-fold dilution): 10 mM), the “IRF Lucia reporter activity” value in the assay on RAW-Dual [1] (setting [4]) came to 0.638; in the assay on RAW-Dual [1] (agonist: LPS (TLR4) 0.1 ug/mL), 0.706.

On to `CC1CCC2C(C)C(OC(=O)CCC(=O)O)OC3OC4(C)CCC1C32OO4` (stereo unspecified), for which the “IRF Lucia reporter activity” value in the assay on RAW-Dual [2] (setting [5]) was 0.737.

On to `Cc1ccc(S(=O)(=O)c2ccc([N+](=O)[O-])o2)cc1`, for which the “IRF Lucia reporter activity” value in the assay on RAW-Dual [2] (cytotoxicity flag (confluency mask): cytotoxic (confluency <70% of control)) turned out to be 0.0157.

With `Cc1ccc(S(=O)(=O)c2ccc([N+](=O)[O-])o2)cc1` (library stock concentration (final ~1000-fold dilution): 10 mM), the results for the “IRF Lucia reporter activity” value in the assay with RAW-Dual [3] (setting [4]) and in the assay with RAW-Dual [3] (agonist: LPS (TLR4) 0.1 ug/mL) were 0.014 and 0.01, respectively.

Turning to `CC(C)(C(=O)O)c1ccc(C(O)CCCN2CCC(C(O)(c3ccccc3)c3ccccc3)CC2)cc1.Cl` (stereo unspecified) (library stock concentration (final ~1000-fold dilution): 10 mM), the “IRF Lucia reporter activity” value in the assay on RAW-Dual [1] (setting [4]) worked out at 1.07; in the assay on RAW-Dual [1] (agonist: LPS (TLR4) 0.1 ug/mL), 0.969.

Regarding `CC(C)(C(=O)O)c1ccc(C(O)CCCN2CCC(C(O)(c3ccccc3)c3ccccc3)CC2)cc1.Cl` (stereo unspecified), the “IRF Lucia reporter activity” value in the assay with RAW-Dual [2] (setting [5]) worked out at 1.05.

Take `Cc1cn[nH]c1` (library stock concentration (final ~1000-fold dilution): 10 mM): the “IRF Lucia reporter activity” value amounted to 1.03 with RAW-Dual [1] (setting [4]) and 1.02 with RAW-Dual [1] (agonist: LPS (TLR4) 0.1 ug/mL).

For `Cc1cn[nH]c1`, in the assay on RAW-Dual [2] (setting [5]), the “IRF Lucia reporter activity” value is 0.974.

For the compound `O=C(C=Cn1cnc(-c2cc(C(F)(F)F)cc(C(F)(F)F)c2)n1)NNc1ccccn1` (library stock concentration (final ~1000-fold dilution): 10 mM), the “IRF Lucia reporter activity” value is 0.0591 with RAW-Dual [1] (setting [4]) and 0.423 in the assay on RAW-Dual [1] (agonist: LPS (TLR4) 0.1 ug/mL).

For the compound `O=C(CCNC(=O)c1ccc(OC(F)(F)F)cc1)NC1CCCc2ccccc21` (stereo unspecified) (library stock concentration (final ~1000-fold dilution): 10 mM), the “IRF Lucia reporter activity” value amounted to 1.8 in the assay with RAW-Dual [1] (setting [4]) and 1.91 with RAW-Dual [1] (agonist: LPS (TLR4) 0.1 ug/mL).

On to `O=C(Nc1ccccc1Br)NC1CCN(c2ccc(C(F)(F)F)cn2)C1` (stereo unspecified), for which the “IRF Lucia reporter activity” value in the assay with RAW-Dual [2] (setting [5]) is 1.38.

Take `O=C(Nc1ccccc1Br)NC1CCN(c2ccc(C(F)(F)F)cn2)C1` (stereo unspecified) (library stock concentration (final ~1000-fold dilution): 10 mM): the “IRF Lucia reporter activity” value worked out at 0.938 with RAW-Dual [1] (setting [4]) and 0.88 in the assay on RAW-Dual [1] (agonist: LPS (TLR4) 0.1 ug/mL).

Take `CC(=O)Cc1cc(=O)c2c(C)cc(O)c(C3OC(CO)C(O)C(O)C3O)c2o1` (stereo unspecified) (library stock concentration (final ~1000-fold dilution): 10 mM): the “IRF Lucia reporter activity” value in the assay with RAW-Dual [1] (setting [4]) turned out to be 1; in the assay on RAW-Dual [1] (agonist: LPS (TLR4) 0.1 ug/mL) it was 0.692.

Consider `COc1cc2ncnc(Sc3nnc(C)s3)c2cc1OC` (library stock concentration (final ~1000-fold dilution): 10 mM), for which the “IRF Lucia reporter activity” value with RAW-Dual [1] (setting [4]) turned out to be 0.126; in the assay on RAW-Dual [1] (agonist: LPS (TLR4) 0.1 ug/mL), 0.0246.

Turning to `COc1cc2ncnc(Sc3nnc(C)s3)c2cc1OC`, in the assay with RAW-Dual [2] (setting [5]), the “IRF Lucia reporter activity” value stood at 0.0442.

Regarding `CCC1(c2cnc[nH]2)Cc2ccccc2C1` (library stock concentration (final ~1000-fold dilution): 10 mM), the “IRF Lucia reporter activity” value is 1.09 in the assay with RAW-Dual [1] (setting [4]) and 1.05 in the assay on RAW-Dual [1] (agonist: LPS (TLR4) 0.1 ug/mL).

In the case of `CCC1(c2cnc[nH]2)Cc2ccccc2C1`, the “IRF Lucia reporter activity” value in the assay on RAW-Dual [2] (setting [5]) is 0.963.

Regarding `CC(N)c1ccc(C(=O)Nc2ccnc3[nH]ccc23)cc1.Cl.Cl` (stereo unspecified) (library stock concentration (final ~1000-fold dilution): 10 mM), the “IRF Lucia reporter activity” value with RAW-Dual [3] (setting [4]) amounted to 0.0164; with RAW-Dual [3] (agonist: LPS (TLR4) 0.1 ug/mL), 0.0342.

On to `COc1c(C)c(C(=O)c2ccc(N)c(C(=O)O)c2)n2ccccc12` (library stock concentration (final ~1000-fold dilution): 10 mM), for which the entries for the “IRF Lucia reporter activity” value in the assay on RAW-Dual [1] (setting [4]) and in the assay with RAW-Dual [1] (agonist: LPS (TLR4) 0.1 ug/mL) were 1.1 and 0.916, respectively.

Turning to `COc1c(C)c(C(=O)c2ccc(N)c(C(=O)O)c2)n2ccccc12`, the “IRF Lucia reporter activity” value with RAW-Dual [2] (setting [5]) came out at 1.04.

With `Cc1c(C(=O)Nc2ccc(Oc3ccnc4[nH]cc(-c5ccccc5)c34)c(F)c2)c(=O)n(-c2ccc(F)cc2)n1C` (library stock concentration (final ~1000-fold dilution): 10 mM), the “IRF Lucia reporter activity” value in the assay with RAW-Dual [1] (setting [4]) came to 0.0577; in the assay with RAW-Dual [1] (agonist: LPS (TLR4) 0.1 ug/mL) it was 0.255.

For `O=C1O[C@H]([C@@H](O)CO)C(O)=C1OP(=O)(O)O` (library stock concentration (final ~1000-fold dilution): 10 mM water), the figures for the “IRF Lucia reporter activity” value in the assay on RAW-Dual [1] (setting [4]) and in the assay with RAW-Dual [1] (agonist: LPS (TLR4) 0.1 ug/mL) were 1.27 and 0.819, respectively.

Take `COc1nccc(-c2c(-c3ccc(F)cc3)ncn2C2CCC(O)CC2)n1` (stereo unspecified) (library stock concentration (final ~1000-fold dilution): 10 mM): the “IRF Lucia reporter activity” value in the assay with RAW-Dual [1] (setting [4]) was found to be 0.777; with RAW-Dual [1] (agonist: LPS (TLR4) 0.1 ug/mL) it was 0.775.

On to `CCCc1cc(C)[nH]c(=O)c1CNC(=O)c1cc(-c2ccc(N3CCN(C(C)C)CC3)nc2)cc2c1cnn2C(C)C` (library stock concentration (final ~1000-fold dilution): 10 mM), for which the “IRF Lucia reporter activity” value with RAW-Dual [1] (setting [4]) and in the assay with RAW-Dual [1] (agonist: LPS (TLR4) 0.1 ug/mL) was 0.971 each time.

Values taken from the supplement of paper PMC10037445.
